The record followed here is ChEMBL document CHEMBL4888484, “Replenishing the malaria drug discovery pipeline: Screening and hit evaluation of the MMV Hit Generation Library 1 (HGL1) against asexual blood stage Plasmodium falciparum ,using a nano luciferase reporter read-out” (2022).

Each structure is given as a SMILES string. The whole screen tested about 150,000 compounds, of which about 540 (0.36%) showed an effect of 50% or more. Some of the results follow.

This assay relates to Plasmodium falciparum. As to the kind of experiment: Primary screen in NF54 nanoGlo assay, in single point, at 2uM, 72h; a lower Z score goes with more inhibition. It counts as functional, Erythrocyte. Particulars: timepoint 72 hour.
As for `O=C(NCC1CC1c1ccccc1)NC1CC1` (stereo not given), the “% Inhibition” value came to 28% and the Z score is reported as -3.17.
The like results for `Cn1c(=O)n(CC(=O)N2C[C@H]3CCS(=O)(=O)[C@H]3C2)c2ccccc21` were, in that order, -10% and 1.52.
In the same order, the values of `O=C(NCCN1CCC[C@H](CO)C1)c1cccc(-c2ccc3occc3c2)c1` are -3% and 0.37.
For the compound `COc1ccc(NCc2ccc(-c3c(F)cccc3F)o2)cc1CO`, the “% Inhibition” value is -12% and the Z score was 1.19.
Take `Cc1c(Br)c(C(F)F)nn1[C@@H](C)c1nnc(-c2ccncc2)o1`: the “% Inhibition” value is -28% and the Z score amounted to 3.28.
The like results for `COc1ccc(CCC(=O)N[C@H]2CCCN(C3CCN(C)CC3)C2)cc1` were, in that order, -11% and 1.61.
`CCN1C(=O)c2cc(NC(=O)NCc3ccc(OC)c(OC)c3)ccc2Oc2ccccc21`: the “% Inhibition” value is listed as 20% and the Z score is -2.54.
The like results for `CCc1nnc(NC(=O)C2CCOCC2)s1` were, in that order, -17% and 1.4.
In the same order, the values of `Cc1cc(C(=O)NCc2nc(C(F)(F)F)no2)ns1` are 20% and -2.35.
In the same order, the values of `O=C1COc2ccccc2N1Cc1noc([C@@H]2CCCO2)n1` are 3% and -0.56.
`N#Cc1cccc(S(=O)(=O)N2CCC3(CCC(=O)N(C4CC4)C3)CC2)c1`: the “% Inhibition” value is reported as -20% and the Z score came out at 2.12.
The like results for `CCC/C=C/CN1CCC(CC(=O)NC)CC1` were, in that order, -6% and 1.2.
The like results for `CN1CCC(O)(c2ccc3c(c2)CN(Cc2ccc(F)cc2F)CCO3)CC1` were, in that order, 6% and -0.71.
In the same order, the values of `COC[C@@H]1CC(F)(F)CN1C1CN(S(=O)(=O)c2ccc(F)c(C)c2)C1` are 4% and -0.52.
Consider `CC(C)C(=O)N1CCc2cc(CNC(=O)c3ccco3)ccc21`, for which the “% Inhibition” value is on record as -13% and the Z score turned out to be 1.22.
The like results for `CCCn1cnnc1CN(C)Cc1ccc(OC)cc1C` were, in that order, 1% and -0.18.
With `CN[C@@H](C(=O)NCCc1ccccc1OC)c1cnn(C)c1`, the “% Inhibition” value was -11% and the Z score turned out to be 1.12.
In the same order, the values of `COc1ccc([C@H]2CC(=O)Nc3ncn(-c4ccc(F)cc4)c32)cc1OC` are -1% and 0.16.
On to `Cc1nn(C)cc1CNc1nc(-c2ccccn2)nc2c1CCNCC2`, for which the “% Inhibition” value is -7% and the Z score is 0.95.
In the same order, the values of `CCCC[C@@H](c1cccnc1)N(C)Cc1c(C)nn(C)c1Cl` are -3% and 0.29.
On to `O[C@H]1CCN(Cc2cccc(OCCCCN3CCOCC3)c2)C[C@@H]1O`, for which the “% Inhibition” value was determined as 4% and the Z score was -0.63.
Turning to `COc1ccc(-n2nnnc2-c2cn(C)nc2C(F)(F)F)cc1`, the “% Inhibition” value is -10% and the Z score is 1.86.
The like results for `COc1ccc(C(=O)N2CCC3(CC2)OC[C@@H](C(=O)N2CCOCC2)N3C(=O)c2ccccc2)cc1OC` were, in that order, -16% and 2.65.
In the case of `Cc1cc(CNC(=O)c2cn(Cc3cccc4ccccc34)nn2)n[nH]1`, the “% Inhibition” value is reported as -5% and the Z score is given as 0.8.
In the case of `CC(=O)N1CCC(C(=O)Nc2sc(C)c(C)c2C(=O)NCc2cccnc2)CC1`, the “% Inhibition” value is on record as -5% and the Z score stood at 1.07.
Take `O=S(=O)(c1cccc(-c2nnc(-c3ccccc3)c(-c3ccccc3)n2)c1)N1CCCCC1`: the “% Inhibition” value is recorded as -10% and the Z score turned out to be 1.31.
For the compound `CCN(CC)CCCNC(=O)C1CCN(c2nc3ccccc3[nH]2)CC1`, the “% Inhibition” value came to 6% and the Z score is -1.03.
In the same order, the values of `CCN(Cc1nccn1C)C(=O)CN1CCOC1=O` are -6% and 1.13.
The like results for `CCc1ccc(C2CC(C)CCN2c2cc(C)nc3nc(C(F)(F)F)nn23)o1` (stereo not given) were, in that order, -6% and 0.81.
The like results for `O=C(Nc1ccccc1)C(F)(OC(F)(F)C(F)(OC(F)(F)C(F)(F)C(F)(F)F)C(F)(F)F)C(F)(F)F` (stereo not given) were, in that order, 14% and -1.88.
For the compound `CC(C)C(NC(=O)N[C@H]1[C@@H]2COC[C@@H]21)c1nncn1C` (stereo not given in full), the “% Inhibition” value came to 8% and the Z score is -1.03.
In the same order, the values of `O=C(Nc1cc(F)c(F)c(F)c1)[C@@H]1CC(O)=Nc2c1c(=O)[nH]c(=O)n2Cc1ccccc1` are -14% and 1.58.
The like results for `COc1ccccc1C(=O)N1CCc2cc3ccc2[C@@H]1c1cccc(c1)OCCCNC(=O)CO3` were, in that order, -12% and 1.6.
Turning to `Cc1cc(CNc2ccc(CC#N)cc2)c(C)o1`, the “% Inhibition” value turned out to be 6% and the Z score is listed as -0.67.
The like results for `COc1cccc(C(=O)NC[C@@]23CCCC=C2N(CC2CC2)C(=O)CC3)c1` were, in that order, -14% and 2.05.
The like results for `CC1CCCC(C(=O)N2CC3CCC2C3)C1` (stereo not given) were, in that order, -11% and 1.37.
As for `Cc1nccc(NC(=O)NC2C3CCOC3C23CCC3)c1Cl` (stereo not given), the “% Inhibition” value is given as -3% and the Z score stood at 0.34.
In the same order, the values of `Fc1ccc(C(Cn2cnc3ccccc32)NC2CCOC2)cc1` (stereo not given) are -1% and 0.14.
In the same order, the values of `CCc1noc(NCc2ccc3c(c2)OCO3)c1C(=O)Nc1ccc(F)cc1` are -2% and 0.27.
The like results for `CCC12CCCN1C(=O)N(CC(C)Oc1ccc(F)cc1)C2=O` (stereo not given) were, in that order, 8% and -1.1.
As for `COC[C@H]1CCCN(C(=O)Nc2ccnc(C)n2)C1`, the “% Inhibition” value is -1% and the Z score was determined as 0.12.
In the same order, the values of `CC(C)CNC(=O)N1CCC[C@H](C2=NC(=C3N=CC=N3)NO2)C1` are -12% and 2.15.
In the same order, the values of `CCN(C(=O)Cn1cc(-c2ccc(C)cc2)c(N2CCOCC2)n1)c1cccc(C)c1` are -3% and 0.5.
In the same order, the values of `CC(C)c1ccc(OC(=O)CCN2C(=O)c3ccccc3C2=O)cc1` are -3% and 0.41.
In the case of `O=C(NCc1ccc(-n2cncn2)nc1)c1ccc(=O)[nH]n1`, the “% Inhibition” value was -9% and the Z score is recorded as 1.51.
In the same order, the values of `Cn1ncnc1CN1CCC[C@H](c2ccc(F)cc2)CC1` are 2% and -0.3.
The like results for `c1cnc2cnn(CC[C@H]3CCCO3)c2c1` were, in that order, -19% and 2.43.
In the same order, the values of `COC(C)(C)CCNc1cc(C(C)C)ncn1` are 2% and -0.27.
Take `CCOc1ccccc1NC(=O)N1C[C@H](N(C)C)C[C@H]1CO`: the “% Inhibition” value was -7% and the Z score was determined as 0.69.
In the case of `Cc1nn(-c2ccccc2)c(C)c1C(=O)Nc1cccc(N2CCCC2=O)c1`, the “% Inhibition” value is listed as 42% and the Z score is listed as -5.47.
The like results for `Cc1cc(C)n(C(=O)c2c(-c3ccccc3)c(-c3ccccc3)n[nH]c2=O)n1` were, in that order, 3% and -0.6.
In the same order, the values of `C[C@@H](c1nnc(-c2cccs2)o1)N1CCC2(CC1)OCCO2` are -9% and 1.4.
The like results for `O=C(CC1C=CCC1)N1CCCC(CN2CCCC2)C1` (stereo not given) were, in that order, -5% and 0.73.
Consider `Cc1ccccc1OCC(=O)NC(C)(C)C`, for which the “% Inhibition” value was 5% and the Z score is -0.81.
The like results for `Cc1c(C(=O)N2C[C@@H](C)CN(C)c3ccccc32)nnn1-c1cnn(C)c1` were, in that order, -11% and 1.12.
In the same order, the values of `Cc1cnc(C)c(Oc2cccc(CN3CCCC3)c2F)n1` are -8% and 1.3.
In the same order, the values of `Cc1cc(C(=O)NCc2ccc(N(C)C)cc2)c2c(=O)n(C)c(=O)n(C)c2n1` are -3% and 0.34.
Regarding `C[C@@H](CCN(C)CCn1cc(C(=O)NCc2ccncc2)nn1)c1ccccc1`, the “% Inhibition” value is reported as -14% and the Z score amounted to 1.89.
In the same order, the values of `COC(CNC(=O)c1ccc(-n2cccn2)nn1)OC` are -12% and 2.33.
In the same order, the values of `COc1cc(NS(=O)(=O)N2CC3CCC2C3)c(F)cc1C#N` (stereo not given) are -3% and 0.47.
In the same order, the values of `CCC(C)(CC)[C@@](O)(C#CC[N+]1(Cc2ccccc2Cl)CCCCC1)c1ccccc1` are 39% and -4.45.
Turning to `Cc1cc(O)cc(=O)n1CCC(=O)N1CC(c2ccccc2)CC1C` (stereo not given), the “% Inhibition” value is reported as -6% and the Z score amounted to 0.68.
In the same order, the values of `CCn1nc(Cc2c(Cl)cccc2Cl)nc1CNC1CC1` are -5% and 0.95.
As to `CN1C(=O)[C@@H]2CCCCN2c2ccc(C(=O)NC3CCCC3)cc21`, the “% Inhibition” value stood at 11% and the Z score is -1.58.
As for `C=CCNC(=NCc1ccc(OC)cc1)NCC1CC1`, the “% Inhibition” value is given as -2% and the Z score worked out at 0.2.
Turning to `CN1CCOC[C@H]2CCN(S(=O)(=O)c3ccc4c(c3)OCCO4)C[C@H]21`, the “% Inhibition” value is recorded as -12% and the Z score came out at 2.35.
As to `CCc1nnsc1C(=O)Nc1ccc(Cl)cn1`, the “% Inhibition” value is listed as -8% and the Z score was determined as 1.54.
The like results for `COC(=O)c1cc(F)c(F)c(N)c1Cl` were, in that order, 1% and -0.12.
As for `Cc1c(S(=O)(=O)Nc2cc(C(C)(C)F)on2)cnn1C`, the “% Inhibition” value was 29% and the Z score is reported as -2.46.
The like results for `Cc1ccc(Nc2[nH]nnc2C(=O)N2CCc3ccccc3C2)cc1C` were, in that order, -10% and 1.29.
In the same order, the values of `O=C(Cn1cnc2ccccc21)NCc1ccccc1-c1ccsc1` are 5% and -0.86.
On to `Cc1nn(C)c(C)c1C(=O)Nc1ccc2c(c1)OCCCO2`, for which the “% Inhibition” value is recorded as -3% and the Z score is 0.51.
In the same order, the values of `Cc1nc(N)nc(NCCc2ncc[nH]2)c1Cl` are -10% and 0.89.
In the same order, the values of `C#Cc1cccc(NC(=O)N[C@@H](C)C(C)(C)CN(C)C)c1` are 8% and -1.32.
The like results for `O=C(c1cc2ccccc2o1)N(c1cccc(F)c1)C1CCOCC1` were, in that order, -16% and 1.72.
As to `O=C(c1cnn2c1CCCC2)N1CCN([C@H]2CCN(Cc3ccccc3)C2)CC1`, the “% Inhibition” value worked out at 0% and the Z score is on record as -0.06.
For `CCCC(=O)N1CCC(C(=O)NC(C)(C)C)CC1`, the “% Inhibition” value is -16% and the Z score is listed as 2.36.
In the same order, the values of `Cc1ncc(CO)c2c1NC(C)(C)OC2` are -8% and 0.7.
The like results for `Cc1cc(O)nc2nnc(-c3ccc(Br)cc3)n12` were, in that order, -10% and 0.85.
The like results for `COc1ccc(NS(=O)(=O)c2ccc(NC(=O)C(c3ccccc3)c3ccccc3)cc2)cc1` were, in that order, 7% and -1.15.
For `CCn1nc(CC(C)C)cc1C(=O)N(C)Cc1nc2ccccc2n1C`, the “% Inhibition” value is given as -23% and the Z score amounted to 2.3.
`COc1cc2c(cc1OC)C(NC(=O)C[C@@H]1NC(=O)N(c3ccccc3)C1=O)CC2` (stereo not given in full): the “% Inhibition” value is -3% and the Z score amounted to 0.45.
The like results for `O=C(Nc1cnc(Oc2ccccc2)nc1)Nc1ccccc1Cl` were, in that order, 5% and -1.01.
The like results for `COc1ccccc1-c1nc2c(OCc3ccccc3)cccn2c1NC(C)(C)C` were, in that order, -15% and 1.44.
In the same order, the values of `CS(=O)(=O)c1cccc(C(=O)N2CCNC(=O)C[C@H]2c2ccccc2)c1` are -9% and 1.21.

For orientation: % Inhibition means the relative decrease from the control value, in per cent.
